Source: patent publication US20180289790A1 (Bristol-Myers Squibb, published 2018)
Where “and” joins values, the source holds several entries; their conditions need not be identical. Equal values may be shown once.

Legend:
[1] = biological target: T1, human ICOS (huICOS), on activated human CD4+ T cells (human, UniProt Q9Y6W8 21-199); test: flow cytometry (FACS, GMFI) on CD3/CD28-activated human CD4+ T cells, detection with APC goat anti-human IgG (Fc gamma); the table head prints µg/ml, the x axis of the plot is [Ab] (nM)
T1 construct: Native ICOS on primary human T cells; also called CD278; inducible T-cell co-stimulator
T1 sequence: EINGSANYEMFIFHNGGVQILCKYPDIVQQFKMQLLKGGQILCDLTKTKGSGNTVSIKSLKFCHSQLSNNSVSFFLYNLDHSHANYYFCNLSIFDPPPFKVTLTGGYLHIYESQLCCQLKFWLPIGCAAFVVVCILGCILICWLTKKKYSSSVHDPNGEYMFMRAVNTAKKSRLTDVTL

[2] = biological target: T2, rat ICOS, on activated rat T cells (rat, UniProt Q9R1T7 21-200); test: flow cytometry (FACS, GMFI) on CD3/CD28-activated rat splenocytes (T cells), detection with APC goat anti-human IgG (Fc gamma); the table head prints µg/ml, the x axis of the plot is [Ab] (nM)
T2 construct: whole, on cells
T2 sequence (looked up): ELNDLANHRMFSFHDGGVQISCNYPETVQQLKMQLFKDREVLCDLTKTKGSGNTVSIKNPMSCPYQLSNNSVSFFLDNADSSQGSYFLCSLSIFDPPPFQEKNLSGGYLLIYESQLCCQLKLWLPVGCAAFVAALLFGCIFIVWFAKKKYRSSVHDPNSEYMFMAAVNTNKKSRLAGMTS

[3] = biological target: T3, cynomolgus monkey ICOS, on activated cynomolgus T cells (cynomolgus monkey, UniProt A0A2K5TQR6 21-168); test: flow cytometry (FACS, GMFI) on CD3/CD28-activated cynomolgus PBMC (T cells), detection with APC goat anti-human IgG (Fc gamma); the table head prints µg/ml, the x axis of the plot is [Ab] (nM)
T3 construct: also called cynomolgus ICOS
T3 sequence: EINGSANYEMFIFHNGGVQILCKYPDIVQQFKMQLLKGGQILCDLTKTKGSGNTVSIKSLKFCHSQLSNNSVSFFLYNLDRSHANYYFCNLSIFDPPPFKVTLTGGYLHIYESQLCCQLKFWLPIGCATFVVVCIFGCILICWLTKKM

[4] = biological target: T1, human ICOS (huICOS), on activated human …; test: flow cytometry on activated CD4+ T cells, 30 min on ice, detection with anti-human-IgG-PE, MFI
[5] = biological target: T4, mouse ICOS, on activated mouse T cells (mouse, UniProt Q9WVS0 21-200); test: flow cytometry (FACS, GMFI) on CD3/CD28-activated mouse splenocytes (T cells), detection with APC goat anti-human IgG (Fc gamma); the table head prints µg/ml, the x axis of the plot is [Ab] (nM)
T4 construct: whole, on cells
T4 sequence (looked up): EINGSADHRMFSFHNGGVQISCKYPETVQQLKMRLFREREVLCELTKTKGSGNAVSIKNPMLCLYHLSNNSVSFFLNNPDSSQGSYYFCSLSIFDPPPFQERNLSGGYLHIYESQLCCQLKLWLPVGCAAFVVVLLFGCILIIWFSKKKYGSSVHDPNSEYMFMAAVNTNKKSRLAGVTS

[6] = biological target: T1, human ICOS (huICOS), on activated human …; test: cell-based or functional assay
[7] = biological target: T1, human ICOS (huICOS), on activated human …; test: flow cytometry on activated CD4+ T cells, 30 min on ice, detection with anti-human-IgG-PE, MFI; remark: listed apart in the source

B1: ICOS.33 IgG1f S267E (antibody)
heavy: EVQLVESGGGLVKPGGSLRLSCAASGFTFSDYFMHWVRQAPGKGLEWVGVIDTKSFNYATYYSDLVKGRFTISRDDSKNTLYLQMNSLKTEDTAVYYCTATIAVPYYFDYWGQGTLVTVSSASTKGPSVFPLAPSSKSTSGGTAALGCLVKDYFPEPVTVSWNSGALTSGVHTFPAVLQSSGLYSLSSVVTVPSSSLGTQTYICNVNHKPSNTKVDKRV[human IgG1 Fc with changes not shown]
light: DIQMTQSPSSLSASVGDRVTITCQASQDISNYLSWYQQKPGKAPKLLIYYTNLLAEGVPSRFSGSGSGTDFTFTISSLQPEDIATYYCQQYYNYRTFGPGTKVDIKRTVAAPSVFIFPPSDEQLKSGTASVVCLLNNFYPREAKVQWKVDNALQSGNSQESVTEQDSKDSTYSLSSTLTLSKADYEKHKVYACEVTHQGLSSPVTKSFNRGEC
notes: Humanized anti-human ICOS antibody, human IgG1f with S267E (EU numbering); also called ICOS.33-g1f-S267E
- EC50 [1]: 0.671 µg/mL
- EC50 [2]: 0.141 µg/mL and 0.163 µg/mL
- EC50 [3]: 0.309 µg/mL
- EC50 [4]: 0.0682 µg/mL
- EC50 [5]: 0.251 µg/mL and 0.213 µg/mL
- mean EC50 of IFN-γ induction, CHO-scFv-CD3-CD32A/CD25-CD4+ T cell assay [6]: 0.083 nM
- mean EC50 of proliferation, CHO-scFv-CD3-CD32A/CD25-CD4+ T cell assay [6]: 0.083 nM
- EC50 [7]: 0.0823 µg/mL
